Laboratory results as given in PubChem BioAssay AID1460 (National Center for Advancing Translational Sciences (NCATS), 2008).
Hit rate of the full screen: of about 270,000 compounds, about 5,800 (2.1%) were called active. This list was built around the results that the source calls inconclusive (neither active nor inactive); the mix of calls is not that of the screen. The call rests on the fitted dose curve; in most records, active means well fitted inhibition curve with a large enough effect; inconclusive means small, poorly fitted or top-dose-only effect; inactive means flat fitted curve, though single readings scatter. Potencies of inconclusive entries are doubtful fits and often do not repeat.

Target: Microtubule-associated protein tau (Homo sapiens) (UniProt P10636)
Chain of UniProt P10636 (P10636 whole entry, looked up): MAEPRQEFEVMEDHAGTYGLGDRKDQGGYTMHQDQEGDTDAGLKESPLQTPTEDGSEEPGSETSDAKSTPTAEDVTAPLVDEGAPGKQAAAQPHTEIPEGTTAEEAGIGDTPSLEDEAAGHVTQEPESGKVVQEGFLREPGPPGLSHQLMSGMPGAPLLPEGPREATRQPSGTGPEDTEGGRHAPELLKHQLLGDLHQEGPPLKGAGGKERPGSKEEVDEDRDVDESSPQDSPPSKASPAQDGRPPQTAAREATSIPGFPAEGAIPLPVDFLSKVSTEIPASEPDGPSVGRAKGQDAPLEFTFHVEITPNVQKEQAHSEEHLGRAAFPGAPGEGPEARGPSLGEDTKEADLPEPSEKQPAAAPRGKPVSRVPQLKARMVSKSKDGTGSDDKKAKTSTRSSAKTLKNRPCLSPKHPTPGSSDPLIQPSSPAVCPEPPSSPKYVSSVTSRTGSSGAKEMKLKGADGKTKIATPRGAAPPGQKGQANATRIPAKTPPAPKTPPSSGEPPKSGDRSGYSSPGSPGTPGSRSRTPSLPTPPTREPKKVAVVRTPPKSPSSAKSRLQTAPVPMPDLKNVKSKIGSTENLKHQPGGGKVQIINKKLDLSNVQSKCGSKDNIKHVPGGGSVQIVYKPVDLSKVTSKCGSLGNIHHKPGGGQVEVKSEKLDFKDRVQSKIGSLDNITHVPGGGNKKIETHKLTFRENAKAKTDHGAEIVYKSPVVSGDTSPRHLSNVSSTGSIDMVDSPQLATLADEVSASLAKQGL
Test: qHTS for Inhibitors of Tau Fibril Formation, Thioflavin T Binding; further: nearly all actives have a fitted effect of over 55% in size
Conditions: recombinant tau K18 P301L, heparin-induced fibrillization, ThT fluorescence; series mostly up to 57.4 µM
Summary of the method: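 Using a mix of unlabeled (15 uM) and Alexa 594-labeled (0.24 uM) tau K18 P301L, heparin-triggered fibrillization over 6 hr at 37 C was scored by ThT fluorescence.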
Potency means the concentration at half of the fitted maximal effect; tags describe the fitted curve by direction and shape.

Row | SMILES | Potency
1 | Cc1ccc(C)n1-n1cnc2scc(-c3cccs3)c2c1=O | inactive
2 | CCOc1ccc(/C=C(\C#N)C(=O)Nc2sc3c(c2C(=O)OC)C(C(=O)OC)CC3)cc1OC (stereo not drawn) | active: 3.16 µM
3 | CC(=O)NCC(=O)OCC(=O)c1ccccc1 | inactive
4 | Cc1ccsc1-c1nc(CSCC(=O)N2CCN(c3ccccc3)CC2)c(C)o1 | inconclusive: 15.8 µM [inhibitor, single point]
5 | CCOC(=O)c1c(C)[nH]c(C)c1C(=O)CSc1nnnn1-c1ccccc1 | inactive
6 | COc1ccccc1NS(=O)(=O)c1cc(NC(=O)Nc2cccc(C)c2)ccc1N1CCCCC1 | inconclusive: 3.55 µM [activator, partial curve]
7 | CCOC(=O)c1ccc(N2CSC3=C(C#N)C(c4ccc(OC)cc4OC)CC(=O)N3C2)cc1 (stereo not drawn) | active: 25.1 µM
8 | O=C(CSCc1ccccc1)N=Nc1c(O)[nH]c2ccccc12 | inconclusive: 14.1 µM [inhibitor, partial curve]
9 | COC(OC)c1ccnc(-c2ccc(OC(=O)c3ccc(F)cc3)cc2)n1 | inconclusive: 35.5 µM [inhibitor, single point]
10 | O=C(OCc1nnc(-c2ccccc2)o1)c1ccc2c(c1)C(=O)N(CCc1ccccc1)C2=O | inconclusive: 1 µM [inhibitor, partial curve]
11 | CC1CCN(S(=O)(=O)c2ccc(NC(=O)N3c4ccccc4Sc4ccccc43)cc2)CC1 | inconclusive: 28.2 µM [inhibitor, partial curve]
12 | Cn1c(=O)c2sccc2n2c(CCC(=O)N3CCN(c4cccc(Cl)c4)CC3)nnc12 | inconclusive: 31.6 µM [inhibitor, single point]
13 | CC1=NN(c2ccc(Cl)cc2)C(=O)C1C(c1ccccc1O)c1c(C)[nH]n(-c2ccc(Cl)cc2)c1=O (stereo not drawn) | inconclusive: 3.55 µM [inhibitor, full curve]
14 | Cc1ccc(NNC(=O)c2ccno2)cc1Cl | inconclusive: 17.8 µM [inhibitor, single point]
15 | CCOc1ccccc1N=c1oc2cc(O)ccc2cc1C(=O)NCC1CCCO1 (stereo not drawn) | inconclusive: 14.1 µM [inhibitor, partial curve]
16 | O=C1C2C3C=CC(CNS(=O)(=O)c4ccccc4)(O3)C2C(=O)N1c1ccc(Cl)cc1 (stereo not drawn) | inactive
17 | NS(=O)(=O)c1ccc(CNS(=O)(=O)c2ccc(Cl)nc2)cc1 | inactive
18 | COc1cc(/C=C/C(=O)c2ccc(O)cc2)ccc1OCC#N | inconclusive: 14.1 µM [inhibitor, partial curve]
19 | O=C1CC(c2ccc(F)cc2)CC2=C1C(c1ccc([N+](=O)[O-])o1)Nc1ccccc1N2 (stereo not drawn) | inconclusive: 25.1 µM [inhibitor, partial curve]
20 | COc1cc(NC(=O)Cc2ccc(Cl)cc2)ccc1NC(=O)c1ccco1 | inconclusive: 20 µM [inhibitor, single point]
21 | CCOc1ccc(Nc2oc(-c3ccc(COc4ccccc4C)o3)nc2C#N)cc1 | inactive
22 | O=C(NCC(c1ccco1)N1CCN(c2ccccc2)CC1)c1ccc2c(c1)OCO2 (stereo not drawn) | inconclusive: 14.1 µM [inhibitor, partial curve]
23 | CCN(CCCn1c(=S)[nH]c2ccc(N3CCOCC3)cc2c1=O)c1ccccc1 | inactive
24 | O=C(NCc1ccco1)c1ccc(COc2ccc(Cl)cc2)cc1 | inactive
25 | COCCCNC(=O)C1CCC(CNS(=O)(=O)c2ccc(C)cc2)CC1 (stereo not drawn) | inactive

Row | SMILES | Potency
26 | COc1ccc(CNn2c(-c3cccs3)nc3ccccc3c2=O)cc1OC | inconclusive: 8.91 µM [inhibitor, partial curve]
27 | COC(=O)c1ccc(C(NC(=O)OCc2ccccc2)/C(C)=C/[C@@H](C)C(=O)NC2CCCCC2)cc1 (stereo partly drawn) | inconclusive: 5.01 µM [inhibitor, full curve]
28 | Cc1ccc(O)c(N=Cc2cccs2)c1 | active: 25.1 µM
29 | CCC(/C=C1\Sc2ccc(OC)cc2N1CCO)=C\c1sc2ccc(OC)cc2[n+]1CCO | active: 1.12 µM
30 | COc1ccc(/C=N/Nc2cc(C)nc(N3CCOCC3)n2)cc1 | inconclusive: 2.24 µM [inhibitor, full curve]
31 | CC(=O)NC(=S)NNC(=O)COc1ccc([N+](=O)[O-])cc1 | inactive
32 | O=C(CCN1CCCCC1)c1ccc2c(c1)OCCO2 | inconclusive: 1.58 µM [inhibitor, partial curve, poor fit]
33 | Cc1ccsc1/C=C1/SC(N2CC(C)OC(C)C2)=NC1=O (stereo not drawn) | inconclusive: 39.8 µM [inhibitor, single point]
34 | O=[N+]([O-])c1cc(Cl)cc(/C=N\Nc2ccccn2)c1O | active: 8.91 µM
35 | CCCC(C)C(=O)Nc1nc(C)c(-c2csc(Nc3ccc(Cl)cc3)n2)s1 (stereo not drawn) | inconclusive: 15.8 µM [inhibitor, partial curve]
36 | COc1cc(NC(=O)c2cc(-c3ccc(Cl)c(Cl)c3)on2)cc(OC)c1OC | inconclusive: 2.51 µM [inhibitor, full curve]
37 | S=c1[nH]nc(C2CC2c2ccc(Cl)cc2)n1-c1ccc(Cl)cc1 (stereo not drawn) | inconclusive: 39.8 µM [inhibitor, single point]
38 | COC(=O)c1ccc(NC(=O)CSc2nnc(COc3c(C)cccc3C)o2)cc1 | inconclusive: 2.24 µM [inhibitor, full curve]
39 | NC(=O)CC(NC(=O)c1ccccc1)c1ccc(NCc2ccccc2)c([N+](=O)[O-])c1 (stereo not drawn) | active: 12.6 µM
40 | O=C(/C=C/Nc1ccc(F)cc1F)c1ccco1 | inconclusive: 25.1 µM [inhibitor, single point]
41 | CCOc1ccc(N(CC(=O)Nc2ccccc2C(=O)NCc2ccco2)S(C)(=O)=O)cc1 | inactive
42 | Cc1cccc(-c2nc3c(cnn3-c3ccccc3)c(=O)n2-c2cccc(Cl)c2)c1 | inactive
43 | Cc1ccc(Cl)cc1Nc1nc(-c2sc(NC(=O)c3cccc(Cl)c3)nc2C)cs1 | inconclusive: 8.91 µM [inhibitor, partial curve]
44 | CCC(=O)Nc1ccc(NC(=O)c2c(C)nc3ccccn23)cc1 | inconclusive: 20 µM [inhibitor, single point]
45 | Cn1cccc1/C=C1\SC(=S)N(CC(=O)O)C1=O | active: 11.2 µM
46 | CC1(C)S/C(=N/N=C/c2ccco2)NC1=O | inactive
47 | Cc1ccc(CNC(C)c2ccccc2)s1 (stereo not drawn) | inactive
48 | COc1ccc(OC)c(NCc2cccn2-c2nnc(N3CCC(C)CC3)s2)c1 | inconclusive: 31.6 µM [inhibitor, single point]
49 | CCCCOc1nc2ccccc2nc1C(C#N)S(=O)(=O)c1ccccc1 (stereo not drawn) | inconclusive: 17.8 µM [inhibitor, partial curve]
50 | CC(C)Cn1c(-c2csc3c2CCCC3)n[nH]c1=S | inactive

Row | SMILES | Potency
51 | O=C(CCSc1nnc(-c2ccncc2)o1)Nc1cccc(Cl)c1 | inconclusive: 31.6 µM [inhibitor, single point]
52 | CCCCC1=CC2=C(c3ccco3)C(=O)C(C)(OC(=O)c3ccc(OC)cc3)C(=O)C2=CN1c1ccccc1 (stereo not drawn) | inconclusive: 11.2 µM [inhibitor, partial curve]
53 | O=C(O)C(Cc1c[nH]c2ccccc12)N1C(=O)C2C3c4ccccc4C(c4ccccc43)[C@@H]2C1=O (stereo partly drawn) | inconclusive: 0.316 µM [inhibitor, full curve]
54 | O=C(NNc1nc(-c2ccccc2)cs1)c1ccco1 | active: 11.2 µM
55 | CCOc1ccc2c(c1)[C@@H]1C=CC[C@@H]1[C@H](c1ccccc1Cl)N2 | inconclusive: 35.5 µM [inhibitor, single point]
56 | CN(CCO)c1nc(N)c2c(N)nc3c(c2c1C#N)CC(=O)N3Cc1cccs1 | inconclusive: 15.8 µM [inhibitor, partial curve]
57 | O=C(CSc1ccc2ccccc2n1)NCCC1=CCCCC1 | inconclusive: 20 µM [inhibitor, single point]
58 | O=C(CCSCc1ccc(Cl)cc1)NC1CCCC1 | inactive
59 | CN(C)c1ccc(C(CNC(=O)Cc2ccc(Cl)cc2)N2CCOCC2)cc1 (stereo not drawn) | inconclusive: 39.8 µM [inhibitor, single point]
60 | CCOC(=O)C1CCN(C(=O)CSc2n[nH]c(-c3ccccc3Cl)n2)CC1 | inactive
61 | Cc1cc(NC(=O)CSc2nnc(Nc3ccccc3C)s2)no1 | inactive
62 | COc1ccc(OC)c(/C=C2\SC(=S)N(C(C(=O)O)c3ccccc3)C2=O)c1 (stereo not drawn) | active: 15.8 µM
63 | Cc1cc(OCC(=O)Nc2cnn(CCCC(=O)O)c2)ccc1Cl | inactive
64 | N#Cc1ccc(C(=O)CSc2n[nH]c(=O)n2-c2cccnc2)cc1 | inconclusive: 35.5 µM [inhibitor, single point]
65 | Cc1nn(-c2ccccc2)c(-n2cccc2)c1C(=O)NCc1ccccc1Cl | inconclusive: 28.2 µM [inhibitor, single point]
66 | COc1ccccc1N=Cc1c(C)[nH]n(-c2ccc(C)cc2C)c1=O | inactive
67 | O=c1c(-c2ccc3c(c2)OCCO3)coc2cc(O)cc(O)c12 | inconclusive: 12.6 µM [inhibitor, partial curve]
68 | Cn1cnc2c(=O)oc3ccc(S(=O)(=O)N4CCN(c5ccccc5)CC4)cc3c21 | inactive
69 | NC(=O)c1c(NC(=O)c2ccncc2)sc2c1CCCC2 | inconclusive: 7.08 µM [inhibitor, partial curve]
70 | C=CCn1c(SC2CCOC2=O)nc2scc(C3CC3)c2c1=O (stereo not drawn) | inconclusive: 35.5 µM [inhibitor, partial curve]
71 | CO/N=C(\Cn1ncc(N2CCCC2)c(Br)c1=O)c1ccc(Cl)cc1 | inactive
72 | O=C(NC1CC1)c1nc2c(nnn2Cc2ccccc2Cl)c(=O)[nH]1 | inactive
73 | Cc1ccc(-c2nn3cnnc3c3ccccc23)cc1 | inactive
